# Source: paper PMC4336329 (PLoS ONE, 2015)
# Out of some 310,000 compounds screened, about 2,200 (0.71%) showed an effect of 50% or more. Effects have a minus sign here. The list shows a part of the results.
# Biological target: human ether-à-go-go-related gene (hERG) potassium channel (human, UniProt Q12809)
# Experiment: primary screen, population patch clamp on CHO cells stably expressing hERG
# human ether-à-go-go-related gene (hERG) potassium channel, sequence (Q12809 whole entry, looked up): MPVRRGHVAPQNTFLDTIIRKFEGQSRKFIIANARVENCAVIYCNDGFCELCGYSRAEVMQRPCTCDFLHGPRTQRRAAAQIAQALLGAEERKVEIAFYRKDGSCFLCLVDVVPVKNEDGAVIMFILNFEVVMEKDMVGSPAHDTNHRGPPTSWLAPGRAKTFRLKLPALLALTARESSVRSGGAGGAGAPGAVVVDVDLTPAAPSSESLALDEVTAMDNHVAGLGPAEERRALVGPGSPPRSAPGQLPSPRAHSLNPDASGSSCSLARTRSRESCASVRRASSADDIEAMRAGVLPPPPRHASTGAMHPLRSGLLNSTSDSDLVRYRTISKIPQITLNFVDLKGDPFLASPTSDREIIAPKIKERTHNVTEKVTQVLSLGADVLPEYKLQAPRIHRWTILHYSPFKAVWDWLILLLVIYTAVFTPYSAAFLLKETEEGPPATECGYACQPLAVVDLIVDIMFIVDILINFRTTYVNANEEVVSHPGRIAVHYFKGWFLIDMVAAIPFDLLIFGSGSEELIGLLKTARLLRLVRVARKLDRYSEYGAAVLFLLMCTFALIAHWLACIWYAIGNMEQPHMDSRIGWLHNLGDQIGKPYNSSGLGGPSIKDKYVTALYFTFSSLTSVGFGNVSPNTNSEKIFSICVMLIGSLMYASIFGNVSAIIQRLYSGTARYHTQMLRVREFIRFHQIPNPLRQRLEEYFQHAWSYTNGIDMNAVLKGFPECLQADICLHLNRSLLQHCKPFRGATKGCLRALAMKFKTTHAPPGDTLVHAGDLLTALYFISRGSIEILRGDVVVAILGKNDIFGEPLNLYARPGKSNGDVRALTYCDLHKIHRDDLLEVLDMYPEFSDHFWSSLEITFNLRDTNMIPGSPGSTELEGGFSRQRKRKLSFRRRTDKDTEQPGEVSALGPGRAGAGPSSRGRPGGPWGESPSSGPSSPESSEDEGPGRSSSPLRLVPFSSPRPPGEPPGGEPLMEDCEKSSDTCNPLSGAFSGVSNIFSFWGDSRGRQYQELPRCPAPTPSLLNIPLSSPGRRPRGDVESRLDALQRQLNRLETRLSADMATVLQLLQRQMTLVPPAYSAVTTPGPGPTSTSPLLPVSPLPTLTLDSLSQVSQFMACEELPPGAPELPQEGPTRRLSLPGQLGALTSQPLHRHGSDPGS
row,SMILES,"hERG current change (%, negative = inhibition) at 1uM [%]"
1,O=C(Nc1ccc(NC(=O)C2CC2)nc1)c1ccco1,11.3
2,O=C(COc1ccc2ccccc2c1)N/N=C/c1ccccn1,-6.2
3,COCCCNC(=O)Cc1c(C)c2cc3c(cc2oc1=O)OC(C)(C)CC3,12.6
4,O=C(CN1CCN(Cc2ccc(F)cc2)CC1)NCCc1ccccc1,-0.477
5,O=C(NC(NC1CCS(=O)(=O)C1)C(=O)c1ccccc1)c1ccc(Cl)cc1 (stereo not drawn),-4.26
6,COc1ccc(NC(=O)Cc2c(F)c(F)c(F)c(F)c2F)cc1OC,16.8
7,O=C(c1ccccc1Cl)N1N=C(c2cccs2)CC1c1cccc(O)c1 (stereo not drawn),12.8
8,CC1CCc2c(sc3nc(SCC(=O)O)n(-c4ccccc4)c(=O)c23)C1 (stereo not drawn),11.4
9,COC(=O)c1c(N2C(=O)CC(Sc3ccccc3C(=O)O)C2=O)sc2c1CCCC2 (stereo not drawn),16.3
10,O=C(O)C1CC(c2ccc(F)cc2)=NO1 (stereo not drawn),2.07
11,O=C(CCCC(=O)OCC(=O)c1ccc(Cl)cc1)NC1CCCCC1,11.4
12,Cc1cc(C(=O)COc2ccccc2C(N)=O)c(C)n1C1CC1,9.35
13,COc1ccc(CC(=O)Nc2c3c(nn2-c2cccc(Cl)c2)CS(=O)C3)cc1 (stereo not drawn),-9.2
14,O=C(NNC(=O)c1cc2cc3ccccc3nc2s1)c1cccc(C(F)(F)F)c1,5.76
15,CN1C(=O)[C@H]2[C@@H](/C=C/c3ccccc3)N3C(=O)CN(CC4CC4)C(=O)[C@@]3(C)[C@H]2C1=O,13
16,Cn1ccnc1SCC(=O)Nc1nc2c(F)c(F)c(F)cc2s1,4.09
17,CCCCNC(=S)NNC(=O)c1ccc2c(c1)OCO2,7.12
18,NC(=O)c1ccccc1NC(=O)C(c1ccccc1)c1ccccc1,13.5
19,CNc1ccc([N+](=O)[O-])cc1C(=O)O,0.228

row,SMILES,"hERG current change (%, negative = inhibition) at 1uM [%]"
1,COC(=O)c1sccc1NC(=O)C1C2C=CC(O2)C1C(=O)O (stereo not drawn),8.07
2,CCCCC(C(=O)NC(C)(C)C)N(Cc1ccccc1)C(=O)c1snc(C(N)=O)c1N (stereo not drawn),13.7
3,CCOC(=O)N1CCN(CC(=O)Nc2c(C(=O)OC)[nH]c3ccccc23)CC1,7.01
4,Fc1ccc(-c2ccc(-c3nn4c(-c5ccco5)nnc4s3)o2)cc1,-0.511
5,Cc1cccc(C(=O)NNC2=C(C(=O)C(F)(F)F)CCC2)c1O,20.2
6,COc1ccc(NC(=O)c2cc(Br)ccc2Cl)c(OC)c1,3.37
7,CCOC(=O)c1cc(-c2ccccc2)sc1NC(=O)CSc1nnc(N)s1,2.01
8,C=CCC(O)(CC=C)CNC(=O)C1CCC(=O)N(CCCc2ccccc2)C1 (stereo not drawn),12.7
9,COC(=O)c1ccc(Cn2nc(-c3ccc(C)cc3)ccc2=O)cc1,21.1
10,COc1cccc(N2CCN(CC(=O)NCc3ccccc3)CC2)c1,8.47
11,CON/C=C(\C=Nc1ccc(Cl)cc1Cl)c1ncc(C(F)(F)F)cc1Cl,10.7
12,COc1cccc(NC(=O)C2C3C=CC(O3)C2C(=O)O)c1 (stereo not drawn),11.7
13,FC(F)(F)c1cnc(-c2cnc3c(-c4ccc(Cl)cc4)cnn3c2)c(Cl)c1,-5.29
14,CCOC(=O)c1cnc(-c2ccccc2O)nc1Cl,-2.31
15,CC1(NC(=O)NCc2ccco2)CCS(=O)(=O)C1 (stereo not drawn),8.54
16,O=C(CNc1ccc(Oc2ccccc2)cc1)N1CCOCC1.O=C(O)C(=O)O,6.75
17,O=C(O)C1CCN(C(=O)c2ccccc2N2C(=O)[C@@H]3Cc4c([nH]c5ccccc45)C(c4cccc(Cl)c4)N3C2=O)CC1 (stereo partly drawn),10.6
18,CC(=O)c1cnn(-c2ccc(Cl)cc2)c1C,9.93
19,C#CCOCCOCCOCCNc1nc(N2CCN(C(=O)[C@H](CCCC[NH3+])n3cc(CCC(=O)O)nn3)CC2)nc(N2CCN(C(=O)[C@H](CCCC[NH3+])n3cc(CC(C)O)nn3)CC2)n1.[Cl-] (stereo partly drawn),14.8

row,SMILES,"hERG current change (%, negative = inhibition) at 1uM [%]"
1,COc1ccc(Nc2nc(C)cc(=O)[nH]2)cc1,14
2,O=C(COC(=O)c1ccccn1)Nc1ccc(S(=O)(=O)N2CCOCC2)cc1,4.64
3,CS(=O)(=O)N(CCc1ccccc1)CC(=O)NCC1CCCO1 (stereo not drawn),14.9
4,CC(NC(=O)C1CCC(=O)N1Cc1ccc(F)cc1)c1ccc2c(c1)OCCO2 (stereo not drawn),9.76
5,O=C(NCc1ccccn1)Nc1cc(Cl)cc(Cl)c1,4.54
6,CS(=O)(=O)c1ccccc1C(=O)Nc1ccccc1Cc1ccccc1,12.9
7,CCOCCCNC(=O)C(NC(=O)c1ccc(=O)[nH]c1)c1ccc(C)cc1 (stereo not drawn),5.19
8,CC(C)C(NC(=O)CN(c1cccc(F)c1)S(C)(=O)=O)C(C)C,8.33
9,O=C(NCc1ccccn1)C(=O)NCC1OCCN1C(=O)c1ccc(Cl)cc1 (stereo not drawn),4.76
10,CN(CCc1ccccn1)C(=O)Nc1ccc(C(C)(C)C)cc1,7.02
11,OCC1(Cc2cccc(F)c2)CCN(Cc2cccc3nccnc23)CC1,-19.8
12,COCCN1CCN(c2cc(-c3ccccc3)nc3cc(-c4cccc(F)c4)nn23)CC1,9.67
13,O=C(N/N=C/c1cccc(O)c1)N/N=C/c1cccc(O)c1,6.49
14,CCc1ccc2[nH]c(=O)c(CN(Cc3ccccc3)Cc3nnnn3Cc3ccco3)cc2c1,16.3
15,CCN(C(=O)COC(=O)c1cc(Cl)ccc1OC)c1c(N)n(Cc2ccccc2)c(=O)[nH]c1=O,10.7
16,CCCCCC(=O)Nc1ccccc1N1CCN(c2ccccc2)CC1,6.64
17,COc1ccc(NC(=O)O/N=C/c2c(C)nn(C(C)(C)C)c2C)cc1,-5.86
18,O=C(Cc1nc2ccccc2[nH]1)c1cccc([N+](=O)[O-])c1,7.63
19,COc1cc(-c2noc(C)c2/C=C/c2ccc(C(=O)O)cc2)cc(OC)c1OC,5.04
